Measurements published in PubChem BioAssay AID651820 (National Center for Advancing Translational Sciences (NCATS), 2012).
Among all 340,000 compounds or so, about 12,000 (3.5%) were called active. Inconclusive results, whose numbers are uncertain, are shown with a selection of clear calls. The call rests on the fitted dose curve; in most records, active means well fitted inhibition curve with a large enough effect; inconclusive means small, poorly fitted or top-dose-only effect, or another doubt; inactive means no such curve, though single readings can be large or run the other way. Potencies of inconclusive entries are left out as doubtful fits.

Experiment: qHTS Assay for Inhibitors of Hepatitis C Virus (HCV)
Conditions: Huh7.5.1 HCVcc-Cre (HCVcc is cell-culture hepatitis C virus) infection, luciferase reporter, 44 h; series mostly up to 41.8 µM
Summary of the method: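 Whole-lifecycle infectious HCVcc-Cre system; cells 1,000/well, compound then virus (~0.5 moi) added 4 h after plating, 44 h culture. Luciferase read 15 sec following 15 min substrate incubation, room temp.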
Potency means the concentration at half of the fitted maximal effect; tags describe the fitted curve by direction and shape.

**Q.** Which Potency does the source give for `CC(=O)Nc1ccc(NC(=O)CSc2nc(C)nc3sc(C)c(C)c23)cc1` here?
**A.** The Potency was “inactive”.

**Q.** Which Potency does the source give for `O=C(N/N=C\c1c[nH]c2ccccc12)c1ccc(O)cc1` here?
**A.** Its Potency is “inactive”.

**Q.** With `CCCCc1ccc(NC(=O)N2CCN(c3cc(C)nc4ccccc34)CC2)c(C)c1` as the compound, how does the Potency read?
**A.** Its Potency is active: 6.31 µM.

**Q.** Which Potency does the source give for `COc1ccccc1N(C)S(=O)(=O)c1ccc(C(=O)Nc2ccncc2)cc1` here?
**A.** Its Potency is inconclusive [inhibitor, partial curve].

**Q.** With `O=C(CCl)Nc1c[nH]c(=O)[nH]c1=O` as the compound, how does the Potency read?
**A.** The Potency was inconclusive [inhibitor, single point].

**Q.** With `Cc1ccc(C(C)C)c(OCC(=O)OCC(=O)NC2CCS(=O)(=O)C2)c1` (centres undefined) as the compound, how does the Potency read?
**A.** Its Potency is inconclusive [inhibitor, single point].

**Q.** With `O=C(O)COc1ccccc1C=NNC(=O)c1ccccc1NS(=O)(=O)c1cccs1` as the compound, how does the Potency read?
**A.** The Potency was “inactive”.

**Q.** For `O=c1c(O)c(-c2cccs2)oc2ccccc12`, which Potency is on record?
**A.** Its Potency is “inactive”.

**Q.** Which Potency does the source give for `COc1ccc(OC)c(/C=N/NC(=S)NCCc2ccccc2)c1` here?
**A.** Its Potency is inconclusive [inhibitor, single point].

**Q.** With `Clc1cccc(/C(Cc2nc3ccccc3[nH]2)=N\Nc2ccccc2)c1` as the compound, how does the Potency read?
**A.** Its Potency is inconclusive [inhibitor, single point].

**Q.** For `CCNc1nc(NC(C)C)nc(SCCOc2ccc(C)cc2)n1`, which Potency is on record?
**A.** Its Potency is inconclusive [inhibitor, partial curve].

**Q.** Which Potency does the source give for `O=S(=O)(NCc1ccccn1)c1ccc(Cl)c(C(F)(F)F)c1` here?
**A.** The Potency was “inactive”.

**Q.** Which Potency does the source give for `COc1cc(-c2nc(-c3ccccc3)c(-c3ccc(F)cc3)[nH]2)cc2c1OCO2` here?
**A.** Its Potency is inconclusive [inhibitor, partial curve, poor fit].

**Q.** For `CCOc1ccc(Br)cc1S(=O)(=O)NC1CCCC1`, which Potency is on record?
**A.** The Potency was inconclusive [inhibitor, partial curve].

**Q.** Which Potency does the source give for `CCn1cnc2cc(NCc3ccc(N(C)C)cc3)ccc21` here?
**A.** Its Potency is inconclusive [inhibitor, partial curve].

**Q.** With `Cc1ccc(COn2c(-c3ccc(Cl)cc3)nc3ccc([N+](=O)[O-])cc32)cc1` as the compound, how does the Potency read?
**A.** The Potency was inconclusive [inhibitor, single point].

**Q.** Which Potency does the source give for `C=CCn1c(SCc2nc3c(c(=O)[nH]c(=O)n3CCCC)n2CCC)nnc1-c1ccccc1` here?
**A.** The Potency was “inactive”.

**Q.** Which Potency does the source give for `Cc1cccc(S(=O)(=O)c2c(N)n(-c3ccccc3)c3nc4ccccc4nc23)c1` here?
**A.** The Potency was inconclusive [inhibitor, single point].

**Q.** Which Potency does the source give for `FC(F)(F)c1cccc(Cc2noc(CN3CCC(c4ccncc4)CC3)n2)c1` here?
**A.** Its Potency is inconclusive [inhibitor, partial curve].

**Q.** For `CCC(=O)OCCNc1cc(SCCC(=O)OC)c2nonc2c1[N+](=O)[O-]`, which Potency is on record?
**A.** Its Potency is “inactive”.

**Q.** Which Potency does the source give for `Nc1nonc1-n1nnc(C(=O)N/N=C/c2ccc(OCc3ccccc3)cc2)c1CNc1ccccc1` here?
**A.** The Potency was inconclusive [inhibitor, full curve, poor fit].

**Q.** With `Cc1cccc(C)c1NC(=O)CN(C)CC(=O)c1c(N)n(Cc2ccccc2)c(=O)n(C)c1=O` as the compound, how does the Potency read?
**A.** Its Potency is inconclusive [inhibitor, single point].

**Q.** With `COc1ccc2[nH]c3ccc(OC)cc3c2c1` as the compound, how does the Potency read?
**A.** Its Potency is active: 25.1 µM.

**Q.** With `CCN(CC(=O)Nc1ccc2c(c1)OCCO2)C(=O)C(C)Oc1ccc(Cl)cc1` (centres undefined) as the compound, how does the Potency read?
**A.** The Potency was inconclusive [inhibitor, partial curve].

**Q.** For `C=C1C(=O)c2sccc2C(c2ccc(OC)c(OC)c2)C1COC(C)=O` (centres undefined), which Potency is on record?
**A.** Its Potency is active: 1.41 µM.

**Q.** Which Potency does the source give for `CCOC(=O)c1ccc(N=c2ssnc2Cl)cc1` here?
**A.** The Potency was inconclusive [inhibitor, single point].

**Q.** With `NC(=S)N/N=C/c1ccc2cccc(OCc3ccccc3)c2n1` as the compound, how does the Potency read?
**A.** The Potency was active: 11.2 µM.

**Q.** With `CCCCNC(=O)c1cc2c(=O)n3cccc(C)c3nc2n(CCN2CCOCC2)c1=N` as the compound, how does the Potency read?
**A.** The Potency was “inactive”.

**Q.** For `CCOC(=O)c1cccc(NC(=O)c2cc3sccc3n2C)c1`, which Potency is on record?
**A.** The Potency was active: 3.16 µM.

**Q.** For `COc1cc(NC(=O)CSc2nc(C3CC3)nc3ccccc23)cc(OC)c1`, which Potency is on record?
**A.** The Potency was inconclusive [inhibitor, single point].

**Q.** Which Potency does the source give for `COc1ccc(N2CCN(C(=O)Cc3nn(C)c(=O)c4ccccc34)CC2)cc1` here?
**A.** The Potency was inconclusive [inhibitor, single point].

**Q.** For `CCOC(=O)c1sc(-c2ccc(OC)cc2)cc1N`, which Potency is on record?
**A.** The Potency was inconclusive [inhibitor, single point].

**Q.** With `COc1ccc(CN2CCN(C(=O)COc3cccc(C)c3)CC2)c(OC)c1` as the compound, how does the Potency read?
**A.** The Potency was inconclusive [inhibitor, full curve].

**Q.** For `N#CCSc1nnc(COc2cccc3ccccc23)n1-c1cccc(Cl)c1`, which Potency is on record?
**A.** The Potency was inconclusive [inhibitor, partial curve].

**Q.** With `Cc1ccc(C2(C)NC(=O)N(CC(=O)NC3CCCCC3)C2=O)cc1` (centres undefined) as the compound, how does the Potency read?
**A.** Its Potency is “inactive”.

**Q.** With `Cc1sc2nc(SCC(=O)c3cc(C)n(CC4CCCO4)c3C)n(C(C)C)c(=O)c2c1C` (centres undefined) as the compound, how does the Potency read?
**A.** Its Potency is inconclusive [inhibitor, partial curve, poor fit].

**Q.** With `CC(C)[C@H](NS(=O)(=O)c1ccc(Cl)cc1)C(=O)OCC(=O)c1c(N)n(C)c(=O)n(C)c1=O` as the compound, how does the Potency read?
**A.** The Potency was inconclusive [inhibitor, single point].

**Q.** For `Cc1ccc(C(=O)NC(=S)Nc2ccc(N3CCOCC3)cc2)cc1C`, which Potency is on record?
**A.** The Potency was active: 7.94 µM.

**Q.** Which Potency does the source give for `Cc1ccc(/C=C2\SC(=S)N(CCCC(=O)N3CCOCC3)C2=O)cc1` here?
**A.** The Potency was “inactive”.

**Q.** With `COc1ccc(Cl)cc1C(=O)NNC(=O)c1[nH]c(C)c(C(C)=O)c1C` as the compound, how does the Potency read?
**A.** The Potency was inconclusive [inhibitor, single point].

**Q.** For `C=CCn1c(SCC(=O)NC2CC2)nc2ccccc2c1=O`, which Potency is on record?
**A.** Its Potency is “inactive”.

**Q.** Which Potency does the source give for `O=P(O)(O)CN1CCNCCN(CP(=O)(O)O)CCNCC1` here?
**A.** Its Potency is inconclusive [inhibitor, full curve].

**Q.** Which Potency does the source give for `Cc1ccc(Cl)cc1N1CCN(C(=O)C2CCN(c3nnc(-n4cccc4)s3)CC2)CC1` here?
**A.** Its Potency is active: 12.6 µM.

**Q.** With `CC(=O)Nc1ccc(NC(=O)c2cccc3c2-c2ccccc2C3=O)cc1` as the compound, how does the Potency read?
**A.** Its Potency is “inactive”.

**Q.** With `O=C(c1ccccc1Cl)N1N=C(c2ccc(Br)cc2)CC1c1nc2ccccc2[nH]1` (centres undefined) as the compound, how does the Potency read?
**A.** Its Potency is active: 11.2 µM.

**Q.** With `COc1ccc(-c2cc(C(=O)Nc3ccc(C(N)=O)cc3)c3ccccc3n2)cc1` as the compound, how does the Potency read?
**A.** Its Potency is inconclusive [inhibitor, single point].

**Q.** Which Potency does the source give for `Cc1c(Cc2ccccc2)c(=O)oc2cc(OCC(=O)NCC(O)c3ccccc3)ccc12` (centres undefined) here?
**A.** The Potency was inconclusive [inhibitor, single point].

**Q.** For `Cc1cccc(OCC(=O)Nc2nnc(S(=O)(=O)N3CCCCC3)s2)c1`, which Potency is on record?
**A.** The Potency was “inactive”.

**Q.** With `CCOC(=O)c1c(C)[nH]c(C(=O)OCC(=O)Nc2sccc2C(N)=O)c1C` as the compound, how does the Potency read?
**A.** Its Potency is active: 2.82 µM.

**Q.** For `CN(C)C(=O)c1c(-c2ccccc2)oc2ccc(O)cc12`, which Potency is on record?
**A.** Its Potency is inconclusive [inhibitor, partial curve].

**Q.** With `Cc1cccc(NC(=S)NC2CC3CCCC(C2)N3CC(C)C)c1C` (centres undefined) as the compound, how does the Potency read?
**A.** Its Potency is inconclusive [inhibitor, single point].

**Q.** With `Cc1ccc(N2CC(C(=O)Nc3cccc(C(=O)NC4CC4)c3)CC2=O)cc1` (centres undefined) as the compound, how does the Potency read?
**A.** The Potency was inconclusive [inhibitor, partial curve].

**Q.** With `COc1ccc(NC(=O)CN(C)C(=O)c2oc3c(ccc4ccccc43)c2C)cc1` as the compound, how does the Potency read?
**A.** Its Potency is inconclusive [inhibitor, partial curve].

**Q.** Which Potency does the source give for `COC(=O)c1ccc2[nH]c(C(C)(C)O)c(C)c2c1` here?
**A.** The Potency was inconclusive [inhibitor, single point].

**Q.** With `COC(=O)c1cc(-c2c(C)oc3cc(OC)ccc3c2=O)c(C)o1` as the compound, how does the Potency read?
**A.** Its Potency is inconclusive [inhibitor, single point].

**Q.** For `COc1ccccc1N/N=C/c1c(CO)cnc(C)c1O`, which Potency is on record?
**A.** Its Potency is inconclusive [inhibitor, partial curve].

**Q.** Which Potency does the source give for `COc1ccc(Nc2nnc(SCC(=O)/C=C3/N(C)c4ccccc4C3(C)C)s2)cc1` here?
**A.** The Potency was inconclusive [inhibitor, single point].

**Q.** With `NC(=O)c1ccc(NC(=O)COC(=O)C2(c3cccc(F)c3)CCCC2)cc1` as the compound, how does the Potency read?
**A.** The Potency was inconclusive [inhibitor, partial curve].

**Q.** For `CC(=O)C1C(N2CC2)CC2C3CC=C4CC(O)CCC4(C)C3CCC21C` (centres undefined), which Potency is on record?
**A.** Its Potency is active: 11.2 µM.

**Q.** With `Cc1ccc(C(=O)Nc2ccc(S(=O)(=O)NC3=NCCCCC3)cc2)c(C)c1` as the compound, how does the Potency read?
**A.** The Potency was inconclusive [inhibitor, full curve].

**Q.** With `Cc1sc2ncnc(N3CCC(C(=O)Nc4cc(Cl)ccc4Cl)CC3)c2c1C` as the compound, how does the Potency read?
**A.** The Potency was inconclusive [inhibitor, single point].

**Q.** With `CCN(CC)CC#CCC(O)(c1ccccc1)C1CCCCC1` (centres undefined) as the compound, how does the Potency read?
**A.** Its Potency is inconclusive [inhibitor, partial curve].

**Q.** Which Potency does the source give for `N#Cc1nc(COc2ccc(-c3ccccc3)cc2)oc1NCCCN1CCOCC1` here?
**A.** The Potency was inconclusive [inhibitor, partial curve, poor fit].

**Q.** With `COc1ccc(CN2CCCC(C(=O)N3CCCCC3)C2)c(OC)c1` (centres undefined) as the compound, how does the Potency read?
**A.** Its Potency is “inactive”.

**Q.** Which Potency does the source give for `CCCN(Cc1cc2ccc(C)cc2[nH]c1=O)S(=O)(=O)c1ccccc1` here?
**A.** Its Potency is inconclusive [inhibitor, single point].

**Q.** With `COc1ccc(NS(=O)(=O)c2ccc(C)c(C(=O)N3CCC3)c2)cc1` as the compound, how does the Potency read?
**A.** Its Potency is inconclusive [inhibitor, partial curve, poor fit].

**Q.** With `COc1cccc(CNC(=O)CSCc2cnn(-c3ccccc3)c2-n2cccc2)c1OC` as the compound, how does the Potency read?
**A.** The Potency was inconclusive [inhibitor, partial curve].

**Q.** Which Potency does the source give for `Cc1ccc(S(=O)(=O)N2CCOCC2)cc1C(=O)OCC(=O)NC1CCCC(C)C1C` (centres undefined) here?
**A.** The Potency was inconclusive [inhibitor, single point].

**Q.** With `CCCc1nc2ccccc2c(C(=O)OCC(=O)NCc2ccco2)c1CC` as the compound, how does the Potency read?
**A.** Its Potency is inconclusive [inhibitor, full curve].
